# Experimental data as given in the BET-seq Pho4 binding data (Le et al. 2018).
# The list shows a part of the results. Values were computed here from the reads of four pooled replicates and scatter widely.
# Target: T1, Pho4 (S. cerevisiae) (UniProt P07270)
# T1 sequence: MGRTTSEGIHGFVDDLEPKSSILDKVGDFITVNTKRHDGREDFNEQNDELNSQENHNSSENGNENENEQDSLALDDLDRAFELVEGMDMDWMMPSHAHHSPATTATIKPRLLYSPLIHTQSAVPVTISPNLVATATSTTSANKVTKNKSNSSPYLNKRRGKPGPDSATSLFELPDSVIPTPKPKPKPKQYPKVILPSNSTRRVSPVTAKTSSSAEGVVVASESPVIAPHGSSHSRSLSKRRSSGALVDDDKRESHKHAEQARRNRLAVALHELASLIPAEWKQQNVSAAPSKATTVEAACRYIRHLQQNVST
# Assay: relative binding free energy (BET-seq); higher = weaker binding
# Conditions: reference: library average
row,Sequence,relative binding free energy [kcal/mol]
1,GTGATCACGTGATCGG,0.27
2,GGTATCACGTGGTCAG,0.19
3,TTTGTCACGTGTATTT,0.12
4,TTGGTCACGTGACTAT,0.23
5,TAGAACACGTGGCGTT,-0.05
6,GTGATCACGTGGATAG,0.04
7,GTTTGCACGTGAAAGA,0.16
8,GTGTTCACGTGCATAG,0.17
9,TATGGCACGTGTGATA,-0.07
10,TTCTTCACGTGCATAT,0.3
11,GTTGGCACGTGCGGAA,-0.27
12,GTGTTCACGTGTATGA,0.24
13,AGACGCACGTGTGAGG,0.03
14,TAGGACACGTGTTCGG,0
15,TGCTACACGTGCGGGG,-0.08
16,AGTGTCACGTGTGGTC,0.03
17,TCGGACACGTGGGTGT,-0.04
18,AATAGCACGTGAGTAG,0.25
19,TACGTCACGTGGGGGT,-0.09
20,CGGGGCACGTGTGGCG,0.04
21,TGCTTCACGTGTGGGC,0.18
22,TAGGGCACGTGTTGTT,-0.08
23,TGGGTCACGTGAGAAA,0.16
24,TGTACCACGTGTAGTG,-0.18
25,GGGTGCACGTGTAAGA,0.12

row,Sequence,relative binding free energy [kcal/mol]
1,TGTTGCACGTGCATTG,0.07
2,AGGGGCACGTGATGTA,-0.03
3,CGGAGCACGTGGGGCA,-0.26
4,GTTTCCACGTGGTTTT,0.11
5,TAAAGCACGTGGTGTA,-0.15
6,ATTCTCACGTGTGTGC,0.19
7,ATTTGCACGTGTGCGC,0.04
8,GTGTGCACGTGAGGCA,0.14
9,CTTTGCACGTGTTGCT,-0.13
10,AGTGTCACGTGTGAAA,0.33
11,AGGTACACGTGGAGTC,0.06
12,GGTACCACGTGGCGGT,-0.07
13,CGTTTCACGTGGCTTG,0.23
14,AGGGCCACGTGAGGTG,0.11
15,ATTCTCACGTGTTGGG,0.22
16,CGGCGCACGTGGGAAG,-0.05
17,AGGTTCACGTGACGTT,0.33
18,TGCGGCACGTGAGTCG,0.08
19,TGTGTCACGTGTATAC,0.1
20,TTCTTCACGTGATGGA,0.14
21,AGTATCACGTGCTTTT,0.09
22,GTATACACGTGAGGTT,0.38
23,GGGGTCACGTGGTGCC,0.15
24,AGAGTCACGTGTGTAT,0.21
25,GTGTTCACGTGTGATC,0.2

row,Sequence,relative binding free energy [kcal/mol]
1,GTTTGCACGTGTCTTA,0.12
2,GTACTCACGTGTATGG,0.18
3,AGAAGCACGTGTTTGA,-0.12
4,AGGTTCACGTGTGGCG,0.21
5,CTAATCACGTGCGGGG,0.26
6,AGGTTCACGTGCAGTG,0.19
7,TATAGCACGTGGAAAT,0.27
8,GTTATCACGTGGATTT,0.29
9,AATAACACGTGTTAGG,-0.04
10,TGGATCACGTGGAGTA,0.27
11,TTAGACACGTGGGGAA,-0.11
12,GAATGCACGTGGATGA,0.09
13,TGGTACACGTGTATGA,0.17
14,TATGGCACGTGTTAAA,-0.09
15,GGTCACACGTGTTTGA,0.22
16,GATGGCACGTGGAGGA,-0.08
17,TGCGTCACGTGGAGGA,0.04
18,AGGATCACGTGGTCGG,0.02
19,TTTAACACGTGTGCTA,-0.06
20,TATGACACGTGGTCAG,-0.03
21,TTTGGCACGTGCGGAG,-0.1
22,AGGGGCACGTGGTTCA,-0.26
23,TGCTTCACGTGGCAGT,0.17
